The results in this text go back to PubChem BioAssay AID493035 (The Scripps Research Institute Molecular Screening Center, 2011).

In all, about 2,000 compounds went through this assay and about 45 (2%) were called active.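 The calls were made as follows: active = inhibition above the mean of all tested compounds plus 3 SD (cut at about 49% in these data); inactive = the rest.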 Some of the results follow. Where a SMILES comes first, the peptide text is derived from it. The star is where a group is joined. Boc = CC(C)(C)OC(=O)*

This experiment has as its target Perilipin-5 (Homo sapiens) + 1-acylglycerol-3-phosphate O-acyltransferase ABHD5 (Homo sapiens) (UniProt Q00G26+Q8WTS1). In words: blockers of ABHD5 binding to perilipin-5 – cell lysate, split luciferase complementation, luminescence, NIH validation set, pilot screen (AID 493035).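 Also: 0% = DMSO only wells while the 100% control is not stated.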 As to conditions: split G. princeps luciferase complementation, lysates, 4 h; at 7.9 µM, hits give high values.
Chain of UniProt Q00G26 (Q00G26 whole entry, looked up): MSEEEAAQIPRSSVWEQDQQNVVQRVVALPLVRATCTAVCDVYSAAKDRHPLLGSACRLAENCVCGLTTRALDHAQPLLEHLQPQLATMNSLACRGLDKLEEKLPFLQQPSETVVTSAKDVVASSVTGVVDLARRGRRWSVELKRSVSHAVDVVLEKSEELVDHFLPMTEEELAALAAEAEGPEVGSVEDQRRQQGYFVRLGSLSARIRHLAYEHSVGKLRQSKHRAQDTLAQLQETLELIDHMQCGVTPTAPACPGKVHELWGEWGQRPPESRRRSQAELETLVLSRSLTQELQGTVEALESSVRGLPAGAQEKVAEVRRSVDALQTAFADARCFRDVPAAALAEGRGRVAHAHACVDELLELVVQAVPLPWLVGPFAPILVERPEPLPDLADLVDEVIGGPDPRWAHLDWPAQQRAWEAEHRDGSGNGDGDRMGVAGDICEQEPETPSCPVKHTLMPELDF
Chain of UniProt Q00G26 (Q8WTS1 whole entry, looked up): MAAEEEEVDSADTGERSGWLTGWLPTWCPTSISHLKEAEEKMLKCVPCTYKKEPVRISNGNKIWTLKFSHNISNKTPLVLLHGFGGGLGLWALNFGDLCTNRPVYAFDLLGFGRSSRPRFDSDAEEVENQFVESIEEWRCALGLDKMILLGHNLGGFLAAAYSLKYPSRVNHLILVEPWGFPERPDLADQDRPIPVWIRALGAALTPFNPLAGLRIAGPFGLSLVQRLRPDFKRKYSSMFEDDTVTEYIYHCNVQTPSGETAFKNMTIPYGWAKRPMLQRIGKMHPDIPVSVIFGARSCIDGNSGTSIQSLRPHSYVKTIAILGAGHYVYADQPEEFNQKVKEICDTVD
A word on the inhibition: it is the change of the read-out against control, counted positive when it falls. Turning to `COc1ccc(OC)c(S(=O)(=O)N2CCCc3ccccc32)c1`, the inhibition is inactive: -3.37%. Take `O=C(c1ccccc1)N1CCN(C(=O)c2ccccc2)CC1`: the inhibition was inactive: -4.51%.

Take `NCCCC(=O)O`: the inhibition was inactive: 1.05%. For the compound `NS(=O)(=O)c1cc2c(cc1Cl)NC(C(Cl)Cl)NS2(=O)=O` (stereo not drawn), the inhibition was inactive: 3.18%. Turning to `c1ccc(Nc2ccccn2)nc1`, the inhibition is inactive: -4.92%. Take `CC(C)CCn1c(N2CCc3ccccc3C2)nc2c1c(=O)[nH]c(=O)n2C`: the inhibition was inactive: 7.1%. For `CC(C)[N+](C)(CCOC(=O)C1c2ccccc2Oc2ccccc21)C(C)C` the value was inactive: 4.51%. Take `c1cc2c(cc1C1CCCCC1)c1c3n2CCN=C3CCC1`: the inhibition was inactive: 1.07%. `Cc1ccc2c(c1C)NC(C(=O)O)C1CC=CC21` (stereo not drawn): the inhibition is inactive: 6.49%. The same measure for `COc1cccc2c1C(=O)O/C2=C/c1ccc2c(c1)OCO2`: inactive: 10%; for `CC(C)CC(=O)Nc1ccc2oc(-c3ccncc3)nc2c1`: inactive: -8.82%; for `CCN(Cc1ccncc1)Cc1nc(Cc2ccccc2Cl)no1`: inactive: -1.62%. For `CCCC(=O)O[C@]1(C(=O)CCl)[C@@H](C)C[C@H]2[C@@H]3CCC4=CC(=O)C=C[C@]4(C)[C@@]3(F)C(=O)C[C@@]21C`, the inhibition is inactive: -2.79%. Take `CCOc1ccc2ccccc2c1C(=O)N[C@@H]1C(=O)N2[C@@H]1SC(C)(C)[C@@H]2C(=O)O`: the inhibition was inactive: -1.36%. The same measure for `COc1cc2c(cc1OC)C1(CCCC1)CNC2c1cccc([N+](=O)[O-])c1` (stereo not drawn): inactive: -1.68%; for `Cn1c(=O)c2c(nc(SCCN3CCCCC3)n2C)n(C)c1=O`: inactive: -9.84%; for `CCN(CC)CCNC(=O)c1cc(Cl)c(N)cc1OC`: inactive: 3.79%.

Take `CCc1ccc(/C=C2\Oc3cc(OC(=O)N4CCOCC4)ccc3C2=O)cc1`: the inhibition is inactive: 17.7%. Consider `[N-]=[N+]=NC1C[C@H](n2ccc(=O)[nH]c2=O)O[C@@H]1CO` (stereo partly drawn), for which the inhibition was inactive: -13.5%. On to `COc1ccc(S(=O)(=O)NCc2ccco2)c2ccccc12`, for which the inhibition was inactive: -2.66%. Consider `CC1=NN(c2ccccc2)C(=O)C1`, for which the inhibition is inactive: 20.4%. Consider `COc1ccc(CCNC(=O)c2c(O)c3c([nH]c2=O)CCCC3)cc1`, for which the inhibition is inactive: 1.95%. `O=C(O)CCNC(=O)c1ccccc1`: the inhibition was inactive: -9.9%. Take `Cc1oc2c(O)c(O)ccc2c(=O)c1-c1ccccc1`: the inhibition was inactive: -3.74%. With `Cc1nc(N)sc1C(=O)N/N=C/c1ccco1`, the inhibition was inactive: -0.45%.

As to `Cc1ccc(S(=O)(=O)N[C@@H](Cc2ccccc2)C(=O)CCl)cc1`, the inhibition is active: 84.4%. With `COc1ccc(OCC(=O)N2c3ccc(C)cc3C3CN(C)CCC32)cc1` (stereo not drawn), the inhibition is inactive: -2.28%. `COc1cccc(CN2CCN(C(=O)c3ccc(-c4ccccc4)cc3)CC2)c1`: the inhibition was inactive: -4.19%.

With `C1CCC(C(CC2CCCCN2)C2CCCCC2)CC1` (stereo not drawn), the inhibition was inactive: -10%.

Take `Clc1ccc(OCCCN2CCCCC2)c(Br)c1`: the inhibition is inactive: 7.02%. For the compound `CC(=O)[C@@]1(O)CC[C@H]2[C@@H]3C[C@H](C)C4=CC(=O)C=C[C@]4(C)[C@@]3(F)[C@@H](O)C[C@@]21C`, the inhibition was inactive: -8.96%. Consider `CCc1nc(N)nc(N)c1-c1ccc(Cl)cc1`, for which the inhibition is inactive: -11%. In the case of `O=C(NCCc1cccc(F)c1)[C@@H]1CSC2c3ccccc3C(=O)N21` (stereo partly drawn), the inhibition is inactive: 11.8%. `CC(C)NCC(O)COc1ccc(CCOCC2CC2)cc1` (stereo not drawn): the inhibition is inactive: -2.02%. Take `CCOc1cc(C)cc2oc(=O)cc(-c3ccccc3)c12`: the inhibition was inactive: -6.39%.

For the compound `OC[C@H]1O[C@@H](n2cnc3c(NC4CCCC4)ncnc32)[C@H](O)[C@@H]1O`, the inhibition is inactive: -7.75%.

`C1COC(NC(C2CC2)C2CC2)=N1`: the inhibition was inactive: 12.9%. For `NC(N)=N/N=C/c1ccc(OS(=O)(=O)c2ccccc2)cc1`, the inhibition was inactive: -1.57%. The same measure for `COC1CCN(C(=O)c2ccc(OC3CCN(Cc4ccccn4)CC3)cc2)CC1`: inactive: 0.85%. As for `O=C1c2ccccc2C(=O)N1/N=C/c1ccc(Oc2ccc([N+](=O)[O-])cn2)cc1`, the inhibition was inactive: -2.07%. The same measure for `COc1ccc(CCN=C(N)C(C)c2ccccc2)cc1OC` (stereo not drawn): inactive: -12.5%; for `CCN(CC)CCCNC(=O)C1c2ccccc2Oc2ccccc21`: inactive: -3.25%.

With `Cc1ccc(S(=O)(=O)Nc2ccc(S(=O)(=O)Nc3cc(C)nc(C)n3)cc2)cc1`, the inhibition was inactive: 4.03%.

As for `CCC(CO)NCCNC(CC)CO` (stereo not drawn), the inhibition is inactive: -3.49%. As for `CC(C)[C@H]1CN(C)CCN1Cc1cn(C)nc1-c1cccc(Cl)c1`, the inhibition is inactive: -6.99%. Turning to `CC1CCN(CCOCCOc2ccccc2Br)CC1`, the inhibition is inactive: -1.54%. Consider `CC(C)C(=O)Nc1c(O)c2ccccc2[nH]c1=O`, for which the inhibition is inactive: -10.7%. On to `O=C(Nc1c(C(=O)O)[nH]c2ccccc12)NC1CCCCC1`, for which the inhibition was inactive: 0.67%. The same measure for `CC1(C)CC(=O)c2c(nc3ccccc3c2N)C1`: inactive: -10.3%; for `COC(=O)c1cc(C(=O)NCCC(C)C)cc([N+](=O)[O-])c1`: inactive: -16.4%; for `COc1cccc(-n2cc(CNCc3c(C(=O)N(C)C)nc4ccc(Cl)cn34)cn2)c1`: inactive: 9.08%. For the compound `COC(=O)c1ccc2c(c1)C(=O)/C(=C/c1ccc(O)cc1)O2`, the inhibition is inactive: 6.49%.

As for `CNS(=O)(=O)c1ccc(C)cc1`, the inhibition is inactive: -16.6%.

For `CN(C)C(=O)C12CCC(C)(c3nc4ccccc4nc31)C2(C)C` (stereo not drawn), the inhibition was inactive: -12.6%. Regarding `C/C(=N\NC(=O)C1(C)CC1(Br)Br)c1ccc([N+](=O)[O-])cc1` (stereo not drawn), the inhibition is inactive: -8.2%. For `c1cnc(N2CCN(Cc3ccc4c(c3)OCO4)CC2)nc1` the value was inactive: 0.11%. For `O[C@H]1COC2C1OC[C@@H]2O` (stereo partly drawn) the value was inactive: -7.45%. Regarding `CCc1cccc2c1NC1(CCCC1)CC2C` (stereo not drawn), the inhibition was inactive: -7.15%. Take `O=C(COc1ccc2ccc(=O)oc2c1)c1ccccc1`: the inhibition was inactive: -3.28%. On to `COc1ccc(OCc2cccc(C(=O)NN)c2)cc1`, for which the inhibition is inactive: 1.06%. Regarding `C/C(=N\NC(=O)c1ccccc1[N+](=O)[O-])c1ccc(Br)s1`, the inhibition is inactive: -7.54%. For `NC(N)=NC(N)=NCCc1ccccc1`, the inhibition is inactive: -11.9%. In the case of `CC(NC(=O)c1cccnc1)C(=O)O` (stereo not drawn), the inhibition is inactive: -15.1%. For `CC(C)OC(=O)CC1C(=O)NCCN1C(=S)NC(=O)c1cccs1` (stereo not drawn) the value was inactive: -6.51%; for `C(=C\c1ccccc1)/CN1CCN(C(c2ccccc2)c2ccccc2)CC1`, inactive: 2.11%.

Regarding `Cc1ccc(OCCCCn2ccnc2C)c(C)c1`, the inhibition was inactive: -2.15%. Turning to `CCOC(=O)C1C(=O)OC2(CCOC(C)(C)C2)C1C(=O)OCC` (stereo not drawn), the inhibition was inactive: -6.14%. For `CCOC(=O)C(NC(=O)CCC(=O)Nc1ccc(S(N)(=O)=O)cc1)C(O)c1ccccc1` (stereo not drawn) the value was inactive: -0.83%; for `CC(=O)NC1C(OCCOc2ccc(Cl)cc2Cl)OC(COC(C)=O)C(OC(C)=O)C1OC(C)=O` (stereo not drawn), inactive: -5.93%; for `Cn1c(=O)c2c(ncn2Cc2ccccc2)n(C)c1=O`, inactive: -12.1%. For `C=CCc1cc(Cl)ccc1OCCOCCN(C)C` the value was inactive: -6.55%; for `O=c1c(-c2ccc3c(c2)OCCO3)coc2cc(OC3OC(CO)C(O)C(O)C3O)ccc12` (stereo not drawn), inactive: -6.25%; for `Cc1cccc(N2CCN(C(=S)c3ccccc3)CC2)c1`, inactive: -7.24%. As to `O=c1ccc2c(o1)/C(=C/C=C(Cl)Cl)CCC2`, the inhibition is inactive: 2.59%. In the case of `Nc1nc2ccc(OC(F)(F)F)cc2s1`, the inhibition was inactive: -0.16%. As to `CC(C)CN1CCN(Cc2ccc(C#CC(C)(C)O)cc2)CC1CCO` (stereo not drawn), the inhibition was inactive: 1.45%. `COc1ccc2c(c1)c(CC(=O)O)c(C)n2C(=O)c1ccc(Cl)cc1`: the inhibition was inactive: -6.43%.

In the case of `COC(=O)c1cc(OC)c(OC)cc1NC(=O)CN1C(=O)c2ccccc2C1=O`, the inhibition is inactive: -8.74%.

With `Cc1ccc(S(=O)(=O)NC(C(=O)Oc2ccc3c(C(F)(F)F)cc(=O)oc3c2)c2ccccc2)cc1` (stereo not drawn), the inhibition was inactive: -12.5%.

In the case of `CN(C(=O)C(Cl)Cl)c1ccc(OC(=O)c2ccco2)cc1`, the inhibition was inactive: 2.13%. Regarding `Cc1oc2c(CN3CCCC3)c(O)ccc2c(=O)c1-c1ccc(Cl)cc1`, the inhibition is inactive: -4.97%. With `CN(C)CCOC(C)(c1ccccc1)c1ccccn1` (stereo not drawn), the inhibition was inactive: -6.69%.

For `COc1ccccc1C(=O)Oc1ccc2c(c1)O/C(=C\c1ccncc1)C2=O`, the inhibition is inactive: 35.9%. On to `Cc1csc(-c2coc3cc(O)cc(C)c3c2=O)n1`, for which the inhibition was inactive: -5.36%.

In the case of `COc1ccc(NC(=O)C2C(=O)N(CCO)C3(C)CC2c2ccccc2O3)cc1` (stereo not drawn), the inhibition is inactive: -8.28%. On to `Cc1ccc(S(=O)(=O)n2ccnc2)cc1C`, for which the inhibition is inactive: -3.74%. As to `CC(C)CC(NC(=O)C1CCCN1C(=O)OC(C)(C)C)C(=O)NCC(N)=O` (stereo not drawn) (Boc-Pro-Leu-Gly-NH2; configuration not given here), the inhibition is inactive: -15.8%. For `Cc1ncc(C(=O)O)c(C(=O)O)c1N`, the inhibition is inactive: -8.5%. As for `CN1CCN(CCCN2c3ccccc3Sc3ccc(C(F)(F)F)cc32)CC1`, the inhibition is inactive: -22.1%. Regarding `CNC[C@H](O)c1ccc(O)c(O)c1`, the inhibition is inactive: -19.5%.

`CC(C)[N+]1(C)[C@@H]2CC[C@H]1CC(OC(=O)C(CO)c1ccccc1)C2` (stereo partly drawn): the inhibition is inactive: -2.34%. With `C[N+]1(C2CCC3CCCC2C3O)CCCCC1` (stereo not drawn), the inhibition was inactive: -6.88%. `COC(=O)c1cc(-c2ccc(OC)c(OC)c2)on1`: the inhibition was inactive: -3.76%. In the case of `COc1ccc(/C=C/C(=O)Nc2ccccc2C(=O)O)cc1OC`, the inhibition was inactive: -12.4%. Regarding `CC(=O)N/C(=C/c1ccc2c(c1)OCO2)C(=O)NCCO`, the inhibition is inactive: 2.23%.

Consider `COC(=O)c1[nH]c(=O)c2ccccc2c1O`, for which the inhibition was inactive: -0.91%.

As for `CCc1nc2ccccc2c(NC(=O)CN2CC(C)CC(C)C2)c1C` (stereo not drawn), the inhibition was inactive: -7.88%. For `Oc1ccc(/C=C/c2cc(O)cc(O)c2)cc1` the value was inactive: -3.51%.
